Measurements: patent US20090155268A1 (VEGENICS, published 2009)

B1: R-3 G (VEGFR-3 D1-3 / human IgG Fc fusion) (Fc fusion)
chain: YSMTPPTLNITEESHVIDTGDSLSISCRGQHPLEWAWPGAQEAPATGDKDSEDTGVVRDCEGTDARPYCKVLLLHEVHANDTGSYVCYYKYIKARIEGTTAASSYVFVRDFEQPFINKPDTLLVNRKDAMWVPCLVSIPGLNVTLRSQSSVLWPDGQEVVWDDRRGMLVSTPLLHDALYLQCETTWGDQDFLSNPFLVHITGNELYDIQLLPRKSLELLVGEKLVLNCTVWAEFNSGVTFDWDYPGKQAERGKWVPERRSQQTHTELSSILTIHNVSQHDLGSYVCKANNGIQRFRESTEVIVHEDPIEGRGGGGGD[gap - human IgG1 Fc with changes]
notes: Range starts at position 1 (native signal peptide in the entry); not shown: human IgG Fc fragment fused to the C-terminus
B2: R-3 C (VEGFR-3 fragment / human IgG Fc fusion) (Fc fusion)
chain: YSMTPPTLNITEESHVIDTGDSLSISCRGQHPLEWAWPGAQEAPATGDKDSEDTGVVRDCEGTDARPYCKVLLLHEVHANDTGSYVCYYKYIKARIEGTTAASSYVFVRDFEQPFINKPDTLLVNRKDAMWVPCLVSIPGLNVTLRSQSSVLWPDGQEVVWDDRRGMLVSTPLLHDALYLQCETTWGDQDFLSNPFLVHITGNELADPIEGRGGGGGD[gap - human IgG1 Fc with changes]
notes: Range starts at position 1, so the native signal peptide is in the entry; not shown: human IgG Fc fragment fused to the C-terminus
B3: R-3 D (VEGFR-3 fragment / human IgG Fc fusion) (Fc fusion)
chain: YSMTPPTLNITEESHVIDTGDSLSISCRGQHPLEWAWPGAQEAPATGDKDSEDTGVVRDCEGTDARPYCKVLLLHEVHANDTGSYVCYYKYIKARIEGTTAASSYVFVRDFEQPFINKPDTLLVNRKDAMWVPCLVSIPGLNVTLRSQSSVLWPDGQEVVWDDRRGMLVSTPLLHDALYLQCETTWGDQDFLSNPFLVHITGDPIEGRGGGGGD[gap - human IgG1 Fc with changes]
notes: as for B1
B4: R-3 B with CD33 Signal Peptide (VEGFR-3 fragment / human IgG Fc fusion) (Fc fusion)
chain: MDKLPFINKPDTLLVNRKDAMWVPCLVSIPGLNVTLRSQSSVLWPDGQEVVWDDRRGMLVSTPLLHDALYLQCETTWGDQDFLSNPFLVHITGDPIEGRGGGGGD[gap - human IgG1 Fc with changes]
notes: CD33 signal peptide in the expression construct; not shown: human IgG Fc fragment fused to the C-terminus
B5: R-3 H (VEGFR-3 fragment / human IgG Fc fusion) (Fc fusion)
chain: YSMTPPTLNITEESHVIDTGDSLSISCRGQHPLEWAWPGAQEAPATGDKDSEDTGVVRDCEGTDARPYCKVLLLHEVHANDTGSYVCYYKYIKARIEGTTAASSYVFVRDPIEGRGGGGGD[gap - human IgG1 Fc with changes]
notes: as for B1
B6: R-3 I (VEGFR-3 domains 2 and 3, Ig domain 1 deleted / human IgG Fc fusion) (Fc fusion)
chain: YSMTPPTLNITEESHVRDFEQPFINKPDTLLVNRKDAMWVPCLVSIPGLNVTLRSQSSVLWPDGQEVVWDDRRGMLVSTPLLHDALYLQCETTWGDQDFLSNPFLVHITGNELYDIQLLPRKSLELLVGEKLVLNCTVWAEFNSGVTFDWDYPGKQAERGKWVPERRSQQTHTELSSILTIHNVSQHDLGSYVCKANNGIQRFRESTEVIVHEDPIEGRGGGGGD[gap - human IgG1 Fc with changes]
notes: as for B1
B7: R-3 J (VEGFR-3 domain 2, Ig domain 1 deleted / human IgG Fc fusion) (Fc fusion)
chain: YSMTPPTLNITEESHVRDFEQPFINKPDTLLVNRKDAMWVPCLVSIPGLNVTLRSQSSVLWPDGQEVVWDDRRGMLVSTPLLHDALYLQCETTWGDQDFLSNPFLVHITGNELYDIQLLPRKSLELLVGEKDPIEGRGGGGGD[gap - human IgG1 Fc with changes]
notes: as for B1
B8: R-3 K (VEGFR-3 fragment, Ig domain 1 deleted / human IgG Fc fusion) (Fc fusion)
chain: YSMTPPTLNITEESHVRDFEQPFINKPDTLLVNRKDAMWVPCLVSIPGLNVTLRSQSSVLWPDGQEVVWDDRRGMLVSTPLLHDALYLQCETTWGDQDFLSNPFLVHITGNELADPIEGRGGGGGD[gap - human IgG1 Fc with changes]
notes: as for B1

Biological target: T1, VEGF-C 109 (minimal VEGF-C fragment with 109 residues) (radiolabelled (printed as tritiated; ligand solution may be supernatant of metabolically labeled 293T cells))
T1 chain: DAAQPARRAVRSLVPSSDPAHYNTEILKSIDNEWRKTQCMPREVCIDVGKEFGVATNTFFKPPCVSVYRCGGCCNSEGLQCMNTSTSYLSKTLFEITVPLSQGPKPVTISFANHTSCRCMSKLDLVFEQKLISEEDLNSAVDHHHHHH
Experiment: precipitation of radiolabelled VEGF-C 109 by the Fc fusion with protein A sepharose, SDS-PAGE autoradiography
Procedure: Either Tritiated VEGF-A 109 or VEGF-C 109 was used in a given binding experiment. Ligand in solution was precipitated by mixing 175 μl of ligand solution with 100 μl binding mix at 4° C. overnight, with agitation. The ligand solution may be the supernatant of metabolically labeled 293T cells. The binding mixes used for the receptor binding analysis were as follows: for VEGFR-1 binding assays, the binding mix was phosphate buffered saline (PBS) containing 1.5% BSA, 0.06% Tween 20, 3 μg/ml heparin and 400 ng/ml VEGFR-1-Fc fusion protein (100 μl of this binding mix was added to 200 μl of ligand solution). For VEGFR-2 binding assays, the binding mix was 82% conditioned cell supernatant from 293T cells transiently expressing VEGFR-2-Fc fusion protein in mixture with 18% of a PBS solution that contained 5% BSA, 0.2% Tween 20, and 10 μg/ml heparin (250 μl of binding mix was added to 200 μl of ligand solution). For VEGFR-3 binding assays, the binding mix was 82% conditioned cell supernatant from 293T cells transiently expressing VEGFR-3-Fc fusion protein, 18% of PBS containing 5% BSA, 0.2% Tween 20, and 10 μg/ml heparin (250 μl of binding mix was added to 200 μl of ligand solution). To collect precipitated ligand, 50 μl of a 30% protein A sepharose (PAS, Pharmacia) slurry in PBS was added and incubated under agitation for at least 1.5 hr at 4° C. Standard buffer was added to each immunoprecipitation sample and boiled for 5 minutes at 95° C. during which the immunopreciptated proteins become dissociated from the protein A sepharose. After centrifugation, 10 μl of each sample was analyzed on 15% SDS-PAGE under reducing conditions. The gels were dried and exposed for either 12 hours on phosphorimager plates or 4 weeks on X-ray film.

Binding result, no binding:
B4
B5
B6
B7
B8

Binding result, binds:
B1
B2
B3
